Values marked as one replicate rest on one cluster of the flow cell; about a third of the high ones do not repeat.
Test system: ATP
Assay: switch fluorescence ratio, 500 uM ATP over buffer (Cy3 cluster intensity, sum of 5 cycles each) (fold (ratio)); higher = stronger signal-on switching upon ATP binding; sequences stand for … in TCGTCGGCAGCGTCAGATGTGTATAAGAGACAGTTTTTTTTTTTTTTTTTTTTTTTTT…TC
Conditions: aptamer strand: ATP DNA aptamer (quencher-CACCTGGGGGAGTATTGCGGAGGAAGG + anchor), 100 nM annealed; ATP concentration: 500 uM; one replicate
Summary of the method: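 Exposure to 500 uM ATP lasted 15 min at 22 °C before imaging, and a selection-buffer image was taken beforehand, for Cy3-labelled switching-strand clusters on a modified Illumina MiSeq flow-cell annealed to 100 nM quencher-labelled ATP aptamer. Five buffer/ATP cycles were run with NaOH stripping and re-annealing between them. The fluorescence ratio per cluster is summed target-cycle over summed buffer-cycle Cy3 intensity, averaged per switch-domain sequence. Clusters outside 100-1000 RFU were excluded.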

Sequence | switch fluorescence ratio
ACTAAAGTTT | 1.02
GAAGTATTAT | 1
AAGTAGAAGG | 0.985
TTTACGATCT | 1.01
AGGCAGACGT | 0.993
TATTAGATGG | 0.935
TACGTTTCGG | 0.979
CAGTTACAC | 1.06
ATTGTCAGCA | 1
CTAAGGAAGT | 1.02
CGGCGTCGCG | 0.984
TGGAGGAAAC | 1.05
TCTACTCTTT | 0.966
TCCAGTGCAG | 1.09
GAACCCCTTT | 1.07
CGGAAGAGAT | 0.985
GGCTTATCAC | 1.02
GTCGGTGTCG | 1.03
TGCACCTAAA | 1.01
CTCAAGCAGT | 2.6
ACAAACATCG | 1
AGTAATTTAT | 0.975
GTTAAAAGGA | 0.975
TCTGAGTCGG | 1.31
TGGCGCAAAT | 1.18
ATTTCATTGT | 0.972

Sequence | switch fluorescence ratio
AACGCCGAAA | 1.16
TGATTGAACC | 1.03
GAGGAGGAGG | 1.02
TATTGTTGCA | 0.974
TCGAAGCGGT | 1.25
TTGCAGCGTA | 1.02
AGTGAGAAGG | 1
CGGACAGCGG | 1.03
TACGGCCGTT | 0.983
AGGTCTGGTC | 0.969
CTAGCCCAAA | 0.989
AAATTAAGTC | 1.07
CCAGGTGTAA | 3.07
TGAAGCTCAG | 1.02
CATTCTCGAA | 0.955
AACCGTTACA | 1.18
AGATTACT | 0.966
AAGGGCCTAC | 1.48
ATGGATGGC | 0.967
GATGGAACAG | 1.01
CGGCGCTTTC | 1.99
TGTTACCGGC | 1.02
GCGAGGCGGT | 1.08
GCATATAGG | 1.02
TCACAACTTA | 1
AGTAAATCTG | 0.985

Sequence | switch fluorescence ratio
GCCGCTTAA | 1.27
GATAAATAAC | 1.01
CGAGAGGCTG | 0.978
TTGAGGGTA | 0.99
GCTACGTTTC | 1.24
AGTTTGGTTT | 0.954
GAAGCACTAT | 1.86
AGCGGAGGAT | 1.02
TTGGCCTAAC | 1.07
GACCTCAAAT | 0.964
ATTGGTTATT | 0.959
CTACGGGGAA | 1.1
TGGTTATTGG | 1.05
TAGTCCGCCT | 1.05
AGGCAGGTTC | 0.987
CAGCACAGAC | 3.6
CATAGAGCT | 0.972
GGACAGCTAT | 1.12
TAAGACAGCT | 0.986
TTTTTGTCC | 0.975
TTTGACAACG | 1.03
GTGAGGAAGG | 0.972
GAGGTCAGTA | 1.03
TAAGCTATGA | 1.04
AGACGAAAGG | 1.02
GGTATAACCT | 1.23

Sequence | switch fluorescence ratio
CTTGCATCT | 0.994
TCCAGCGGCA | 1.07
AAACTGAGTC | 0.975
GCGTCGGGGC | 0.925
AAGCATCGTC | 0.996
GGAGGCCAAG | 0.976
CGGAACAGAT | 1.01
GGTCTGAAAT | 1
TGGTTAAACG | 0.99
AGCTCGGAGC | 0.981
GCTGGTGG | 0.97
TGAGTTTAAC | 0.956
GCCTCGAATT | 0.98
CGTATACTTC | 1.1
ACTTAAAGCG | 0.989
TATGATTCGC | 0.95
TGAGGCTTG | 1.03
CATTGGGGAC | 0.972
AGAACATTGA | 0.952
CTCGAAACG | 0.994
GCCACTATTT | 1.01
AACCCGGGG | 1.03
GGGGGTCAC | 1.01
TATTACACG | 1.07
TCTTACATAA | 1.05
TCTCTATGGC | 1.79

Sequence | switch fluorescence ratio
CTATCAGATG | 1
TGAGCAGGG | 0.971
GCCATACAGC | 0.981
ATGCCATAGC | 0.964
GTTGGATT | 1.02
CACGTTTTCT | 0.987
CCGGGGACAT | 1.07
ATAATGGACG | 1.1
GTTAGGAGGT | 0.981
TAGCACTCAG | 0.98
AAAGAATGTT | 0.986
TCACAACGAC | 1.06
CTTACTAGGC | 1.13
GACGGACTGC | 1.16
TCATGTACAC | 1.09
GTCAGCAACC | 1.8
CAGGGAGAGC | 0.967
ATCAAGGAAC | 1
CATGGCAGGG | 1.05
CGATAAGTCG | 0.988
AATCGTTCGA | 1.01
CGACCGCGTG | 0.974
AATTAGCCAG | 0.93
GAGGTATTTC | 0.966
AAGGTAAGTC | 1.03
AGCCCGTGCG | 1.05

Sequence | switch fluorescence ratio
CTCCAATCAG | 1.15
CGAACTAAAT | 0.99
GTAGACGGAC | 1.17
ACTGTGAGTG | 1.06
CTTTGTTACA | 0.952
CTAGATGTGA | 1.06
TGTACCCTCG | 1.02
AACCGTCGC | 1.14
ATCGCTGTGA | 1.02
GGTGTAGGCC | 1.03
ATCTTCTCGA | 0.992
CAACTCTTT | 1.04
TCTAATATT | 1.01
GTGAGAGTGC | 1
GGTAGCTGGT | 1
CGTCGAGAAC | 1.08
AAGCCTGCTG | 1.02
TGCGGAGGAC | 1.01
TGCAGGCTA | 1
TCAGTTACAA | 1
TATAGGCGTG | 1.02
TGGCGATCTG | 0.986
GACACTCTTT | 0.966
TCACTATCCA | 0.987

— the supplement of paper PMC10126150
